Experimental data: paper PMC4160250
No constants are given. Whether binding was seen depends on the method and setting. Where a sequence is shown, tags or fusion partners need not be part of it.

The chains behind the UniProt entries cited, without tags or fusion partners.
UniProt Q8WUN7: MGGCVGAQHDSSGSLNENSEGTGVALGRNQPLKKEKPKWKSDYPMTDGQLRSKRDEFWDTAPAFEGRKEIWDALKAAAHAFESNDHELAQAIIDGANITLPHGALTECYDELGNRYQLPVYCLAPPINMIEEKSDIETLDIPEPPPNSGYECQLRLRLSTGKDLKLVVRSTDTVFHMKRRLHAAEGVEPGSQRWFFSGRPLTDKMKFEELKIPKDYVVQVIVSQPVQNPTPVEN

Molecular target: His-tagged DC-UbP (human) (UniProt Q8WUN7)
Assay: NMR titration; 15N-labelled DC-UbP (100 uM) titrated stepwise with unlabelled USP5, UbE1, FH or SCCH; 1H-15N HSQC, 20 mM phosphate, 50 mM NaCl, pH 6.5, 298 K; both purified

| binding | Binder |
| --- | --- |
| no binding | FH fragment of UbE1 (FCCH+AD, residues 1-439) (domain or fragment, UniProt Q02053 1-439) MSSSPLSKKRRVSGPDPKPGSNCSPAQSALSEVSSVPTNGMAKNGSEADIDESLYSRQLYVLGHEAMKMLQTSSVLVSGLRGLGVEIAKNIILGGVKAVTLHDQGTTQWADLSSQFYLREEDIGKNRAEVSQPRLAELNSYVPVTAYTGPLVEDFLSSFQVVVLTNSPLEAQLRVGEFCHSRGIKLVVADTRGLFGQLFCDFGEEMVLTDSNGEQPLSAMVSMVTKDNPGVVTCLDEARHGFETGDFVSFSEVQGMIQLNGCQPMEIKVLGPYTFSICDTSNFSDYIRGGIVSQVKVPKKISFKSLPASLVEPDFVMTDFAKYSRPAQLHIGFQALHQFCALHNQPPRPRNEEDATELVGLAQAVNARSPPSVKQNSLDEDLIRKLAYVAAGDLAPINAFIGGLAAQEVMKACSGKFMPIMQWLYFDALECLPEDKEAL |
| no binding | SCCH fragment of UbE1 (residues 622-891) (domain or fragment, UniProt Q02053 622-891) QDPPEKSIPICTLKNFPNAIEHTLQWARDEFEGLFKQPAENVNQYLTDSKFVERTLRLAGTQPLEVLEAVQRSLVLQRPQTWGDCVTWACHHWHTQYCNNIRQLLHNFPPDQLTSSGAPFWSGPKRCPHPLTFDVNNTLHLDYVMAAANLFAQTYGLTGSQDRAAVASLLQSVQVPEFTPKSGVKIHVSDQELQSANASVDDSRLEELKATLPSPDKLPGFKMYPIDFEKDDDSNFHMDFIVAASNLRAENYDISPADRHKSKLIAGKII |
